# PubChem BioAssay AID1346428 (National Center for Advancing Translational Sciences (NCATS), 2018)
# “And” between values parts separate entries of the source, which are not always exact repeats. Equal entries are not always repeated. Out of some 48,000 compounds screened, about 1,200 (2.5%) were called active. Another 2% or so got no clear call; they are omitted.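 How the source made its calls: active means activation of at least 60% and not above a set upper limit (about 1 call in 100 departs from these limits); inconclusive means activation of 40% to 60%, or above that upper limit; inactive means activation under 40%.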 The list shows a part of the results.
# Molecular target: Probable G-protein coupled receptor 32 (Homo sapiens) (UniProt O75388)
# Chain of UniProt O75388 (O75388 whole entry, looked up): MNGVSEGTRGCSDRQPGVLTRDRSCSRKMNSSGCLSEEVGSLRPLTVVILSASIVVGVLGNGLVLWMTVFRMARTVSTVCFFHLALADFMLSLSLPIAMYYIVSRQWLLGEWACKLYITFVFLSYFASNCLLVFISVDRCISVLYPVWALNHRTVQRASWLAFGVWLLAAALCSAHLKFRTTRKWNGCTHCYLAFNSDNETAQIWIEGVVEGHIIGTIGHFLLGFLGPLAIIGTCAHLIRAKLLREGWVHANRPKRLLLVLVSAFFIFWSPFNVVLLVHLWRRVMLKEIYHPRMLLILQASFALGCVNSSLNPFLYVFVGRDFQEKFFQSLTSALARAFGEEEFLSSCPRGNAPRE
# Experiment: qHTS for Agonists of Human Resolvin D1 Receptor DRV1; further: 0% is about no effect
# Conditions: CHO-K1 GPR32 beta-arrestin PathHunter luminescence, 90 min; at 76.9 µM; active compounds read high; zero percent set by DMSO-only wells
# Summary of the method: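 Readings come from a cell-based beta-arrestin complementation format: CHO-K1 GPR32 stable cells (2,500/well) treated 90 min with compounds, then beta-Gal substrate added for 1 h before chemiluminescence imaging.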
row,Structure (SMILES),activation
1,CCOC(=O)Cn1c(=O)n(C2CCCCC2)c2nc(-c3ccc(OCC)cc3)nc(C(N)=O)c21,inactive: -6.29%
2,COc1ccc(C2CC(=O)c3cnc4c(-c5ccccc5)c(C)nn4c3C2)cc1OC (stereo not drawn),inactive: 3.36%
3,CSc1ccc(CCNC(=O)c2ccc3c(c2)nc2n3CCCCC2)cc1,inactive: -6.17%
4,COc1ccc(Cl)cc1NC(=O)c1cnc(SC)nc1-c1ccccc1,inactive: 6.89%
5,Cc1ccccc1NC(=O)C(=O)NCC1(c2ccccc2)CCCC1,inactive: -23%
6,O=C(CSc1nnc2scc(-c3ccc(Cl)cc3)n12)Nc1cccc(C(F)(F)F)c1,inactive: 18%
7,COc1cc(NC(=O)CC(C)S(=O)(=O)c2ccc3c(c2)CCN3C(C)=O)cc(OC)c1OC (stereo not drawn),inactive: 6.85%
8,CCOc1ccc(Nc2nc(C)c(NC(=O)c3ccc(C)cc3)c(Nc3ccc(OCC)cc3)n2)cc1,inactive: -2.49%
9,CCN1CCN(c2ncc3c(n2)CCN(Cc2sccc2C)C3)CC1,inactive: -23%
10,COc1ccc(Cl)cc1Nc1nc2ccc(C(=O)c3ccccc3)cc2n2cnnc12,inactive: -0.561%
11,CCOC(=O)Cc1ccc(NC(=O)N2CCc3c(sc4c3CCCC4)C2c2ccc(F)cc2)cc1 (stereo not drawn),inactive: -5.73%
12,Cc1ccc(NC(=O)CN(C)S(=O)(=O)c2cccc3cccnc23)cc1F,inactive: -11.3%
13,Cc1sc2ncn(CC(=O)N3CCN(c4ccccc4)CC3)c(=O)c2c1S(=O)(=O)N1CCN(c2ncccn2)CC1,inactive: -20.8%
14,CC(C(=O)O)c1ccc(CC2CCCC2=O)cc1 (stereo not drawn),inactive: -8.22% and inactive: -7.31%
15,CCc1cccc(-n2nnc(-c3nsc(NC(=O)c4ccc(C)cc4)n3)c2C)c1,inactive: -1.5%
16,CN(CC(=O)Nc1ccc(Cl)cc1F)S(=O)(=O)c1ccc2c(c1)n(C)c(=O)c(=O)n2C,inactive: -2.16%
17,Fc1ccc(C(Nc2ccccc2Cl)c2nnc(-c3ccccc3Cl)o2)cc1 (stereo not drawn),inactive: -8.72%
18,Nc1ncnc2c1ncn2Cc1c(F)cccc1Cl,inactive: 5.02%
19,CC(C(=O)Nc1ccccc1C(F)(F)F)n1nnc2sc3c(c2c1=O)CCCC3 (stereo not drawn),inactive: -6.3%
20,Cc1ccc(NC(=O)[C@H]2O[C@@H]3OC(C)(C)O[C@@H]3[C@H]3OC(C)(C)O[C@H]32)cc1F,inactive: 4.64%
21,Cc1ccc(NC(=O)c2cccc(N3CCCS3(=O)=O)c2)cc1C,inactive: 39.2%

row,Structure (SMILES),activation
1,CCS(=O)(=O)NCC(c1ccco1)N1CCN(c2ccccc2)CC1 (stereo not drawn),inactive: -17.7%
2,CCc1ccc(CNC(=O)CSc2c3c(nc4ccc(Cl)cc24)CCCC3)cc1,inactive: -19.4%
3,O=C(NCCn1cc(SCc2ccccc2F)c2ccccc21)c1cccs1,active: 66.5%
4,Cc1ccc2c(c1)C(c1ccccc1)N(C(=O)c1ccc(S(=O)(=O)N3CCCCC3)cc1)CC(=O)N2 (stereo not drawn),inactive: 11.6%
5,CSc1nc(Nc2ccc(C)cc2)c(C#N)c(-c2ccccc2)n1,inactive: -5.86%
6,CCOc1ccccc1NC(=O)Cc1csc(COc2cccc(C)c2)n1,inactive: -14.1%
7,O=C(NCCc1ccc(Cl)cc1)c1ccc(Cn2c(=O)[nH]c3ccccc3c2=O)cc1,inactive: -4.34%
8,CC(=O)c1cccc(Nc2ncnc3c2cnn3C)c1,inactive: -10.9%
9,Cc1cccc(NC(=O)CSC2=Nc3ccccc3C3=NC(CCC(=O)NCc4ccc(F)cc4)C(=O)N23)c1 (stereo not drawn),inactive: -5.25%
10,CC(=O)c1ccc(NS(=O)(=O)c2cnc(N)nc2)cc1,inactive: -7.53%
11,COc1ccc2[nH]cc(CCNC(=O)Nc3cccc(F)c3)c2c1,active: 93.2%
12,CCOc1ccc(CN2C(=O)c3ccccc3Sc3ccc(C(=O)NCCc4ccccc4)cc32)cc1,inactive: -5.32%
13,Cc1ccc(-n2c3c(c(=O)[nH]c2=O)C(NS(=O)(=O)c2ccc(C)cc2)(C(F)(F)F)C(=O)N3)cc1 (stereo not drawn),inactive: -0.151%
14,COC(=O)c1c(NC(=O)COc2c(C)cccc2C)sc2c1CCCC2,inactive: 5.92%
15,CC1CCN(S(=O)(=O)c2ccc(C(=O)Nc3nc4ccc(F)cc4s3)cc2)CC1,inactive: -9.02%
16,CCOc1ccccc1NC(=O)c1cc2cc(C)ccc2n1C,inactive: -27.9%
17,CCc1ccc(NC(=O)C2CCC(CNS(=O)(=O)c3cccs3)CC2)cc1 (stereo not drawn),inactive: -6.45%
18,COc1cccc(CNC(=O)c2ccc3c(c2)N(C)C(=O)C2CCCCN32)c1 (stereo not drawn),inactive: 7.91%
19,COc1ccc(-c2nc(SCC(=O)Nc3ccc4c(c3)OCO4)c(-c3ccccc3)[nH]2)cc1,inactive: -16.7%
20,COc1ccccc1NC(=O)C1=C(C)Nc2nc(-c3ccco3)nn2C1c1ccccc1 (stereo not drawn),inactive: -14.3%
21,Cc1ccc(CNc2oc(-c3ccc(COc4ccc(Cl)cc4)o3)nc2C#N)cc1,inactive: -16.8%

row,Structure (SMILES),activation
1,CNS(=O)(=O)c1cc(-c2nn3c(C)nnc3c3ccccc23)ccc1C,inactive: -5.86%
2,CCOC(=O)c1c(NC(=O)c2cc(-c3ccc(Cl)cc3)on2)sc2c1CCCC2,inactive: -4.05%
3,COc1ccc(Nc2nc3c(S(=O)(=O)c4ccc(Br)cc4)nnn3c3ccsc23)c(OC)c1,inactive: -15.4%
4,CC1CCN(c2cc3c(cc2F)c(=O)c(S(=O)(=O)c2ccc(Cl)cc2)cn3C)CC1,inactive: -4.56%
5,CCC(=O)N1CCc2cc(Br)cc(S(=O)(=O)N3CCC(C(=O)N(CC)CC)CC3)c21,inactive: -2.53%
6,CCn1cc(C(=O)N2CCN(c3cc(Cl)ccc3C)CC2)c(=O)c2cc(S(=O)(=O)N3CCOCC3)ccc21,inactive: -3.81%
7,Cc1ccccc1OCc1cc(=O)n2c(-c3ccccc3)csc2n1,inactive: 31.5%
8,CC(C)CCNC(=O)c1cn(C)c2ccc(S(=O)(=O)N3CCCC3)cc2c1=O,inactive: -4.35%
9,CCOc1ccc(-c2cc3nc(C4CCN(C(=O)OC(C)(C)C)CC4)c(C(=O)Nc4ccc(C)c(F)c4)cn3n2)cc1,inactive: 3.65%
10,Cc1nn(C)c2c1c(C(F)(F)F)cc(=O)n2C(C)C(=O)NCCc1ccc(Cl)cc1 (stereo not drawn),inactive: -5.92%
11,Cc1c(-c2cccc(NC(=O)c3ccc(F)c(F)c3)c2)nc2ncccn12,active: 64.1%
12,COCCOC(=O)c1c(C)oc2c1cc(NS(=O)(=O)c1ccc(Cl)c(C)c1)c1ccccc12,inactive: 34.5%
13,CCc1ccccc1NS(=O)(=O)c1ccc2oc(=O)c3ncn(C)c3c2c1,inactive: -23.8%
14,COc1ccc(OCc2ccc(-c3nc(C#N)c(NCc4ccccc4)o3)o2)cc1,inactive: -26.7%
15,N#Cc1ccc(C(=O)Nc2ccccc2-c2nc3ccccc3s2)c(F)c1,inactive: -7.93%
16,Cc1ccc(Oc2coc3cc(OCC(=O)NC4CCCCC4)ccc3c2=O)cc1,inactive: 1.5%
17,CCOC(=O)Cc1ccc(NC(=O)n2ncc3cc(Cl)ccc32)cc1,inactive: 7.61%
18,CNS(=O)(=O)c1ccc(NC(=O)c2cnn3c(C(F)F)cc(-c4ccccc4)nc23)cc1,inactive: -0.0428%
19,CCOC(=O)c1cnc2c(Cl)c(Cl)ccc2c1NCCN1CCOCC1,inactive: -7.38%
20,O=C(Nc1ccc(F)cc1Cl)C1CCN(c2ncnc3c2nc2n3CCCCC2)CC1,inactive: -1.1%
21,CN(C1CCCCC1)S(=O)(=O)c1ccc2c(c1)c(=O)c(C(=O)NCc1ccccc1Cl)cn2C,inactive: 8.76%

row,Structure (SMILES),activation
1,Cc1ccc(NC(=O)c2c(C)oc3ccc(O)c(CN4CCCC4)c23)c(C)c1,inactive: 20%
2,CCOc1ccc(C2C(C(=O)OC)=C(C)NC3=C2C(=O)c2ccccc23)cc1OC (stereo not drawn),inactive: -46.8%
3,CCc1ccc(NC(=O)C2CCCN(c3nn4cc(-c5ccc(OC)cc5)nc4s3)C2)cc1 (stereo not drawn),inactive: -12.5%
4,Cc1ccc2onc(CNC(=O)Nc3ccccc3C#N)c2c1,inactive: 10.2%
5,O=C(NCC(c1ccc2c(c1)OCO2)N1CCN(c2ccc(F)cc2)CC1)c1cccc([N+](=O)[O-])c1 (stereo not drawn),inactive: -29.8%
6,c1ccc(C(O[C@H]2CCCN(CCc3ccc4c(c3)OCO4)C2)c2ccccc2)cc1,inactive: -6.55%
7,COc1ccc(Nc2ncnc3c2c(-c2ccccc2)cn3-c2ccc(C)c(Cl)c2)cc1OC,inactive: 2.72%
8,CCc1ccccc1NC(=O)CSc1ncccc1C(=O)O,inactive: -5.01%
9,COc1cccc(CNC(=O)CCc2c(C)nc3c(c2C)c(=O)n(C)c(=O)n3C)c1,inactive: -11.5%
10,CCn1c2ccccc2c2cc(NC(=O)COc3ccc(C)cc3C)ccc21,inactive: 0.244%
11,COc1ccc(-c2c(C)c3ccc(O)c(CN4CCOCC4)c3oc2=O)cc1,inactive: -17.3%
12,COC(=O)c1cc2sc(Cl)cc2n1Cc1c(C)cc(C)cc1C,inactive: -5.69%
13,Cc1ccc(Cn2c(CNS(=O)(=O)c3cccc([N+](=O)[O-])c3)nc3cccnc32)cc1,inactive: -28.8%
14,CCOc1ccc(OCC)c(NS(=O)(=O)c2cc(-c3cnc(C)o3)ccc2OC)c1,inactive: 0%
15,CCCCNC(=O)C1CCN(S(=O)(=O)CCC)CC1,inactive: -1.55%
16,COc1ccc(OC)c(CNC(=O)c2ccc(C)c(NC(=O)c3nsc4ccccc34)c2)c1,inactive: -12.7%
17,CCOC(=O)c1c(-c2ccccc2)csc1NC(=O)c1cc(=O)c2ccc(C)cc2o1,inactive: 9.1%
18,CCc1nn2c(=O)cc(COC(=O)c3cccc(NC(=O)c4cccs4)c3)nc2s1,inactive: -15.5%
19,Cc1nc2nncn2c(Nc2ccccc2)c1C,inactive: -12.5%
20,COc1ccc(OC)c(NC(=O)c2c(N3CCCC3=O)c3cc(OC)ccc3n2C)c1,inactive: 16.1%
